Test results: PubChem BioAssay (NCATS)
Inconclusive results, whose numbers are uncertain, are shown with a selection of clear calls. For some of these results: Where the call is inconclusive, the potency comes from a doubtful curve fit. Activity calls are given as the source filed them. Unless noted, the call rests on the fitted dose curve; in most records, active means well fitted curve in the direction sought with a large enough effect; inconclusive means small, poorly fitted or top-dose-only effect, or another doubt; inactive means no such curve, though single readings can be large; an effect the other way counts as inactive or inconclusive.

What was measured:
[1] = target: Nuclear receptor ROR-gamma (Homo sapiens) (UniProt P51449); assay: qHTS assay for small molecule antagonists of the retinoid-related orphan receptor gamma (ROR-gamma) signaling pathway (AID 651802);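 further: CHO cells with doxycycline-induced ROR-gamma expression; luciferase reporter luminescence driven by ROR response element; series mostly up to about 92 µM; on the % scale 0 is the no-effect control and ±100 the full control effect; nearly all actives have a fitted effect of over 60% in size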
Sequence of UniProt P51449 (P51449 whole entry, looked up): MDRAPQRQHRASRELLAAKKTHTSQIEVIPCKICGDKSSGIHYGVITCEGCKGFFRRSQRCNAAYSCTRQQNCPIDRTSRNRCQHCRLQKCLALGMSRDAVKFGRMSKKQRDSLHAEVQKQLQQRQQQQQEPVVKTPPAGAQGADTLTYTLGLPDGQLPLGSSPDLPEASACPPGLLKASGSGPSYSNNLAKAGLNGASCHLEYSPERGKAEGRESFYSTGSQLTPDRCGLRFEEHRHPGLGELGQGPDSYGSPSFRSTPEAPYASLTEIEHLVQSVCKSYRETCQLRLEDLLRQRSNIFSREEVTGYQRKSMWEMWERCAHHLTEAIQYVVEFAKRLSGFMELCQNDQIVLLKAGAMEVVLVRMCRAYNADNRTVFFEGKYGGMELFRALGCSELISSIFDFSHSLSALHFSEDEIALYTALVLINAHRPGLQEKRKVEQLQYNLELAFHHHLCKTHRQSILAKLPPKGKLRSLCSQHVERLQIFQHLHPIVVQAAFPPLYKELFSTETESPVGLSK
How it was run: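 Luciferase read-out: ONE-Glo luminescence after 30 min at room temperature, following 16hr doxycycline induction at 37C, 5% CO2 of CHO cells with TET-inducible ROR and RORE-LUC reporter; decreased luminescence = reduced reporter activity.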

[2] = qHTS assay for cell viability of HEK293 cells (AID 743288); details: ATP luminescence (CellTiter-Glo), 18 h; max response: stronger effect = lower value; further: potency means the concentration at half of the fitted maximal effect; nearly all actives have a fitted effect of over 50% in size
How it was run: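 ATP luminescence (CellTiter-Glo) reports metabolically competent cell number after parental HEK293 cells, 2,000/well, were treated with DMSO-dissolved compounds for 18 h at 37 C; reagent incubation 30 min, room temperature.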

[3] = qHTS assay for cell viability of the p53RE-bla HCT-116 cell line (AID 743292); further: potency means the concentration at half of the fitted maximal effect; nearly all actives have a fitted effect of over 55% in size
How it was run: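 CellSensor p53RE-bla HCT-116 cells (4,000/well) pre-incubated 5 h at 37 C, then exposed to compounds in DMSO for 16 h at 37 C. Viability read as ATP content by CellTiter-Glo luminescence after 30 min at room temperature.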

[4] = target: Cytochrome P450 1A2 (Homo sapiens) (UniProt P05177); assay: p450-cyp1a2 (AID 410; calls by dose curve; further: potency means the concentration at half of the fitted maximal effect;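 on activity change, negative = inhibition: top concentration of the series differs between compounds; -100% = full effect of reference inhibitor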)
Sequence of UniProt P05177 (P05177 whole entry, looked up): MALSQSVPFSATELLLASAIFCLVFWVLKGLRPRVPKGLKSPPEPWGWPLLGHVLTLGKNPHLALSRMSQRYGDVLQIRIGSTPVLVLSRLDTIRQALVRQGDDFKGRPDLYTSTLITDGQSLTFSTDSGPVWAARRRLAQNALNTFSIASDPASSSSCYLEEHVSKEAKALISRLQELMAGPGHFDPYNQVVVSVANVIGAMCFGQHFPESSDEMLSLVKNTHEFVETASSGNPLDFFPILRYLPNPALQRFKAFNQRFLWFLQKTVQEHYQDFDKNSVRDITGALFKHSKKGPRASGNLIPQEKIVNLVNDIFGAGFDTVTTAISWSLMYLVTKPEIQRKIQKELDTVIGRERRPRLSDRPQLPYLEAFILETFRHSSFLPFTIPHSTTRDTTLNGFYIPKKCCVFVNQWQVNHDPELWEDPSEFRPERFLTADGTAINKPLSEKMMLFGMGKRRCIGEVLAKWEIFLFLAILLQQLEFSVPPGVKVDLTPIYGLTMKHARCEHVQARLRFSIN
How it was run: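 20nM CYP1A2, 100uM Luciferin-ME (=Km), 100mM KPO4; cpd 10 min RT; +NADPH regen, 60 min RT; stop/detect 20 min; luminescence. Normalized to furafylline 57 uM = full inhibition.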

[5] = qHTS Assay for Identification of Small Molecule Agonists for Hypoxia Response Element Signaling Pathway (AID 914; active means well fitted activation curve with a large enough effect in the signal ratio, with a control signal flat, not every such curve was filed as active; inconclusive means small, poorly fitted or top-dose-only effect, or effect the other way, or a change in a side signal; the % refers to the signal ratio; further: top concentration of the series differs between compounds; % of control where 0% means no effect); details: ME-180 (cervical carcinoma) HRE-bla reporter, beta-lactamase ratio, CoCl2, 17 h; activation: stronger effect = higher value
How it was run: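 HRE-bla ME-180 cells with beta-lactamase reporter under hypoxia response element, compounds with EC50 CoCl2 for 17 hours at 37 C. CCF4 substrate, 460nm/530nm emission ratio gave %Activity; AC50 from titration series.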
Tags describe the fitted curve by direction and shape.

For `O=[N+]([O-])c1cc(N(CCO)CCO)ccc1NCCO`, the Potency [1] was “inactive”, the Potency [2] was inconclusive: 39.8 µM [cytotoxic, partial curve] and the Potency [3] was inconclusive: 39.8 µM [cytotoxic, partial curve].

In the case of `CC(C)(C)c1ccc(O)c(CN(Cc2cc(C(C)(C)C)ccc2O)C2CCCCC2)c1`, the Potency [4] was inconclusive: 7.94 µM [decreasing] and the activation [5] was inconclusive: 26.3%.

With `S=C(S)NCCN1CCNCC1` the activity change, negative = inhibition [4] was inactive: -7.1% [at 11.4 µM] and the activation [5] was inconclusive: -18%.
